Source: PubChem BioAssay AID1745849 (National Center for Advancing Translational Sciences (NCATS), 2022)
The whole screen tested about 2,100 compounds, of which about 320 (15%) were called active. The shares of active, inactive and inconclusive entries below differ from those in the screen. Calls come from the whole dose curve; as a rule, active = well fitted cell-killing curve with a large enough effect; inconclusive = small, poorly fitted or top-dose-only effect, or effect the other way; inactive = flat fitted curve, though single readings scatter. Potencies of inconclusive entries are doubtful fits and often do not repeat.

Assay: Viability Counterscreen for CMV-Luciferase Assay of Inhibitors of ATXN expression; note: nearly all actives have a fitted effect of over 55% in size
Conditions: HEK-293 CMV-luciferase cells viability, protease fluorescence, 24 h
Description: PI: Daniel Scoles Ph.D. University of Utah School of Medicine, Salt Lake City, Utah MLPCN Grant: NS073009 Spinocerebellar ataxia type 2 (SCA2) is a multisystem neurodegenerative disease caused by a dominantly acting mutation leading to expansion of a polyQ domain in the ataxin-2 protein (ATXN2). SCA2 patients develop progressive ataxia and later lose function in other neuronal systems. Prominent parkinsonian signs develop in some patients. Like many neurodegenerative disorders, no symptomatic or disease-modifying treatments are known. The primary objective of the proposed research is to identify compounds inhibiting ATXN2 expression and to test them for efficacy in SCA2 mouse models. We have developed a cell-based assay paired with an in vivo mouse model using identical luciferase expression constructs. This approach takes advantage of an ATXN2-luciferase transgene, with the luciferase gene flanked by the upstream and downstream portions of the ATXN2 gene. Here we describe a 5-7 dose quantitative high thoroughput screen (qHTS) for compounds lowering ATXN2 expression. We screened the NIH Molecular Libraries Small Molecule Repository (MLSMR) and NCGC's mechanistically annotated (MIPE) and drug repurposing (NPC) collections of compounds for lowering expression of an ATXN2-luciferase reporter in HEK-293 cells. The assay is a multiplexed cell viability assay to ensure target reduction in the absence of cytotoxicity. Secondary qHTS assays included a CMV-luciferase reporter expressed in HEK-293 cells as well as a biochemical assay using recombinant luciferase to detect inhibitors of the reporter enzyme. Compounds that inhibit ATXN2 expression but is not cytotoxic were selected for confirmatory and secondary screens.
PROTOCOL TABLE (as described by Inglese J, Shamu CE and Guy RK. 2007) SEQUENCE No. (e.g., 1, 2, 3, etc.); […] (e.g., Cells, Incubation, Reagent, etc.); VALUE; DESCRIPTION. 1; Cells; 4 uL; white, solid bottom, 1536-well Greiner assay plate. 2; Incubation; 2 hr; 37 degree C in 5% humidified CO2. 3; Compounds; 23 nL; Kalypsis pintool (Wako USA) equipped with a 1536-well pin head. 4; Incubation; 24 hr; 37 degree C in 5% humidfified CO2. 5; Reagent; 1 uL; Gly-Phe-7-Amino-4-trifluoromethylcoumarin. 6; Incubation; 30 min; 37 degree C in 5% humidfified CO2. 7; Detection; Fluorescence; Viewlux plate reader (PerkinElmer). 8; Reagent; 3 uL; SteadyGlo luciferase solution (Promega). 9; Incubation; 5 min; room temperature. 10; Detection; Luminescence; ViewLux plate reader (PerkinElmer). NOTES (numbers refer to Sequence numbers above) 1. HEK-293 cells expressing CMV-luciferase reporter (designated as SC cells) were suspended in phenol-red free DMEM and dispensed in assay plates using a Multidrop Combi dispenser (Thermo Fisher Scientific). 2. Assay plates were incubated. Evaporation was prevented by covering assay plates with metal lids containing holes to allow gas diffusion. 3. Compounds were added in a dose response manner with the final concentrations of 57, 11.4, 2.28, 0.46, 0.091, 0.018, 0.0037 uM. Vehicle-only plates, with DMSO being pin-transferred to columns 5-48, were inserted uniformly at the beginning and the end of each library to monitor and record any shifts in assay performance. 5. 125 uM Gly-Phe-7-Amino-4-trifluoromethylcoumarin (MP Biomedicals) working concentration was used at a final concentration of 25 uM. 7. To assess cell viability; the assay plates were read using the ViewLux high-throughput CCD imager (PerkinElmer), wherein single end-point fluorescence measurement was acquired (excitation 405/10; emission 540/25 nm). 8. Detection reagent SteadyGlo Luciferase (Promega) was added to the assay plate. 10. Luminescence is then measured on the ViewLux imager equipped with a clear emission filter using a 2 sec exposure. […]
Potency is the fitted concentration of half-maximal effect; tags give direction and shape of the fitted curve.

Compound | Potency
Cc1ccccc1C(=O)N1CCN(c2ccc(NC(=O)c3ccc4c(c3)OCCO4)cc2)CC1 | inconclusive: 3.55 µM [cytotoxic, single point]
CCC(O)(CC)C(=O)N/N=C/c1cc(Br)cc(Br)c1O | inconclusive: 39.8 µM [rising, single point]
CN(C)c1ccc2c(c1)OC(N)=C(C#N)C2c1cccc(F)c1 (stereo unspecified) | inconclusive: 31.6 µM [rising, single point]
CCCC(=O)NC(c1ccc(OC)cc1)c1c(O)ccc2ccccc12 (stereo unspecified) | active: 10 µM
O=C(Nc1cccc(C(F)(F)F)c1)N1CCC(c2nc(-c3ccc(F)cc3)no2)CC1 | inconclusive: 31.6 µM [cytotoxic, single point]
N#CC1=C(N)N2C(=C(C#N)C1c1cccc(Br)c1)Nc1ccccc12 (stereo unspecified) | inconclusive: 2.82 µM [rising, full curve]
CN(C)CCCN(C(=O)c1ccco1)c1nc2cc3c(cc2s1)OCO3 | inconclusive: 12.6 µM [cytotoxic, partial curve, poor fit]
O=C(CNc1ccc(F)cc1)N/N=C/c1c(O)ccc2ccccc12 | inconclusive: 7.94 µM [cytotoxic, full curve]
O=C(CN1CCCC1)N/N=C/c1c(O)ccc2ccccc12 | inconclusive: 39.8 µM [rising, single point]
CC(=O)c1ccc(NC(=O)COC(=O)c2c3c(nc4ccccc24)/C(=C\c2cccs2)CCC3)cc1 | inactive
c1ccc(-c2sc3ccccc3c2-c2ccc(OCCN3CCCC3)cc2)cc1 | active: 35.5 µM
O=c1[nH]c(=O)n(C2C[C@H](O)[C@@H](CO)O2)cc1C(F)(F)F (stereo partly specified) | inconclusive: 11.2 µM [cytotoxic, partial curve]
O=C(Cc1ccc(-c2ccccc2)cc1)Nc1ccccn1 | inconclusive: 22.4 µM [cytotoxic, partial curve, poor fit]
c1cc2c(cc1-c1cnc3n1CCC3)OCCO2 | inconclusive: 31.6 µM [cytotoxic, single point]
O=C(CSc1ccc2ccccc2n1)N/N=C/c1ccccc1O | inconclusive: 10 µM [cytotoxic, partial curve, poor fit]
COCCNc1nc(-c2cc(C)n(CCc3ccc(OC)cc3)c2C)cs1 | inconclusive: 28.2 µM [cytotoxic, single point]
CCC(c1nnnn1C1CCCC1)N(Cc1cccs1)Cc1cc2cc(C)ccc2[nH]c1=O (stereo unspecified) | inconclusive: 39.8 µM [cytotoxic, single point]
C=CCc1ccccc1OCC(=O)N/N=C/c1ccc(OC(C)=O)cc1OC(C)=O | inconclusive: 10 µM [cytotoxic, partial curve, poor fit]
COc1ccccc1N1CCN(Cc2cc(Br)c(O)c3ncccc23)CC1 | inconclusive: 2 µM [cytotoxic, full curve, poor fit]
COc1ccc(-c2ccc(C(c3c(C)[nH][nH]c3=O)c3c(C)[nH][nH]c3=O)o2)c([N+](=O)[O-])c1 | inconclusive: 17.8 µM [cytotoxic, partial curve, poor fit]
Cc1cc2c(c(/C=C/C(=O)c3ccccc3)c1)OC1(C=C2)Oc2ccccc2C(=O)N1C (stereo unspecified) | inconclusive: 12.6 µM [cytotoxic, partial curve, poor fit]

Compound | Potency
C/C(=N\NC(=O)CCCNc1ccc(C)cc1)c1ccccn1 | inconclusive: 12.6 µM [cytotoxic, single point]
O=c1c(O)c(-c2ccccc2)oc2ccccc12 | inconclusive: 2.24 µM [rising, partial curve, poor fit]
O=C1C(Cl)=C(N2CCC(C(=O)O)CC2)C(=O)c2ccccc21 | inconclusive: 31.6 µM [rising, partial curve]
Cc1ccc(C)c(NC(=O)c2ccccc2NS(=O)(=O)c2cc([N+](=O)[O-])ccc2C)c1 | inconclusive: 2.24 µM [cytotoxic, partial curve]
O=C(Nc1ccc(OC(F)F)c(Cl)c1)C(c1ccccc1)c1ccccc1 | inconclusive: 22.4 µM [cytotoxic, single point]
CCCC(=O)OC/C(O)=C(\C#N)c1nc2ccccc2[nH]1 | inactive
Cc1cccc(OCCn2cc(/C=N/NC(=O)c3ccncc3)c3ccccc32)c1 | inactive
CC(=O)NC(c1ccccc1)c1cc(Cl)c2cccnc2c1O (stereo unspecified) | inconclusive: 3.55 µM [cytotoxic, single point]
COc1ccc(C(=O)Nn2c(SCC(=O)c3ccccc3)nc3ccccc3c2=O)cc1 | inactive
OCCN1CCN(C2CCC(c3ccc(F)cc3)c3ccc(F)cc32)CC1 (stereo unspecified) | inactive
NC(=O)c1cc([N+](=O)[O-])ccc1NCc1ccc(N)cc1 | active: 22.4 µM
CC(=O)Oc1ccc(C23c4ccccc4C2(OC(C)=O)c2cc(OC(C)=O)ccc23)cc1 (stereo unspecified) | inconclusive: 39.8 µM [rising, single point]
C=CCSc1nc2ccccc2n1C(=O)/C=C/c1ccc(OC)c(OC)c1 | inconclusive: 2.82 µM [cytotoxic, partial curve]
COc1ccc(NC2=NCC(Cc3ccc(Br)cc3)S2)cc1 (stereo unspecified) | inactive
COC(=O)c1ccc(/C=C2/SC(=S)N(CCCC(=O)Nc3ccccn3)C2=O)cc1 | inconclusive: 25.1 µM [cytotoxic, single point]
Cc1sc2nc(C3CC3)nc(N3CCN(C(=O)c4ccc(F)cc4)CC3)c2c1C | inconclusive: 22.4 µM [cytotoxic, single point]
O=C(N/N=C/c1c(O)ccc2ccccc12)c1cccnc1 | inconclusive: 39.8 µM [rising, single point]
Cc1c(OCC(=O)NC2CC(C)(C)NC(C)(C)C2)ccc2c1oc(=O)c1ccccc12 | inactive
CCCCCc1ccc(OCCC[n+]2ccccc2)c(CCCCC)c1 | inconclusive: 17.8 µM [cytotoxic, partial curve, poor fit]
CC(C)C1C(=O)N(Cc2cn(CCC3OCCO3)nn2)CCS(=O)(=O)N1Cc1ccc(-c2ccc(Cl)cc2)cc1 (stereo unspecified) | inconclusive: 35.5 µM [cytotoxic, single point]
